From ChEMBL document CHEMBL4888484, “Replenishing the malaria drug discovery pipeline: Screening and hit evaluation of the MMV Hit Generation Library 1 (HGL1) against asexual blood stage Plasmodium falciparum ,using a nano luciferase reporter read-out” (2022) come the findings set out here.

Hit rate of the full screen: of about 150,000 compounds, about 540 (0.36%) showed an effect of 50% or more. The list shows a part of the results.

For this assay, the system named is Plasmodium falciparum. Briefly: Primary screen in NF54 nanoGlo assay, in single point, at 2uM, 72h; a lower Z score goes with more inhibition. It counts as functional, Erythrocyte. The note with it: timepoint 72 hour.
A word on the % Inhibition: it is the drop in the measured response relative to a control, in per cent. Regarding `CC(C)(C)OC(=O)N1CC(c2ncc(Br)cn2)C1`, the “% Inhibition” value was -15% and the Z score is given as 1.88.

Consider `Cn1c(C(F)(F)F)nn(C2CCN(C(=O)c3cncc(F)c3)CC2)c1=O`, for which the “% Inhibition” value is given as -10% and the Z score was determined as 1.1.

`O=C(Nc1nccs1)N1CCN(Cc2cn3cc(Cl)ccc3n2)CC1`: the “% Inhibition” value turned out to be 7% and the Z score is given as -1.02.

As to `COc1ccc(F)cc1C(NC(=O)c1[nH]nc(C)c1Cl)[C@H]1C[C@@H](O)C1` (stereo not given in full), the “% Inhibition” value is reported as 1% and the Z score is -0.22.

As for `CCc1ocnc1C(=O)N1CCC[C@H](c2[nH]ncc2-c2ccc(C)cc2)C1`, the “% Inhibition” value is -10% and the Z score was determined as 1.18.

In the case of `O=C(CCc1ccc(Cl)c(C(F)(F)F)c1)NCc1cccnc1-c1ccco1`, the “% Inhibition” value is listed as -13% and the Z score came to 2.36.

Turning to `Cc1nc2ccc(NC(=O)c3cncc(Br)c3)cc2s1`, the “% Inhibition” value is given as -23% and the Z score came to 4.36.

For `CCc1ncc(NC(=O)N2CCCN(C)CC2)cn1`, the “% Inhibition” value is given as -13% and the Z score is recorded as 2.11.

For the molecule `Cc1ccc(Cn2cc(-c3ccncc3)cc2C(=O)N2CCN(CC(C)C)CC2)cc1`, the “% Inhibition” value came to 8% and the Z score is reported as -0.89.

For `CCCc1cc(C(=O)NCCc2c[nH]cn2)no1`, the “% Inhibition” value is on record as -2% and the Z score came out at 0.44.

On to `Cc1noc(C)c1CC(=O)N[C@H]1CCc2ccccc21`, for which the “% Inhibition” value is -10% and the Z score is reported as 1.16.

For `Cn1c(Cl)cnc1CN1CCc2ccccc21`, the “% Inhibition” value was 4% and the Z score is reported as -0.52.

As for `c1ccc(-c2nnc(-c3cccnc3NCCc3cccs3)o2)cc1`, the “% Inhibition” value is recorded as -13% and the Z score turned out to be 1.23.

Consider `Cc1cccc2nc(CCNC(=O)N[C@H]3CC(=O)N(C)C3)cn12`, for which the “% Inhibition” value is listed as -2% and the Z score is 0.23.

As to `O=C(c1ccc2nsnc2c1)N1CCN(c2ccc(-c3ccco3)nn2)CC1`, the “% Inhibition” value was -6% and the Z score was 0.95.

Take `CC(c1nnnn1C1CCCCC1)N1CCOC(c2cccc(O)c2)C1` (stereo not given): the “% Inhibition” value was determined as 7% and the Z score is reported as -1.16.

Consider `O=C(c1ccc2c(c1)OCCCO2)N1CCN(S(=O)(=O)c2ccc(Br)cc2)CC1`, for which the “% Inhibition” value is listed as -14% and the Z score was found to be 1.63.

For `O=C(CN1C(=O)CCc2cc(Br)ccc21)NCc1cccnc1`, the “% Inhibition” value is on record as -13% and the Z score is recorded as 1.74.

For `CC1CC(C)CN(C2CCN(C(=O)c3ccc4c(=O)n5c(nc4c3)CCCCCC5)CC2)C1` (stereo not given), the “% Inhibition” value is -3% and the Z score is listed as 0.63.

`O=C(CCc1ccccc1)N1CC[C@H](CCOc2ccccc2F)C1`: the “% Inhibition” value is -12% and the Z score turned out to be 2.33.

For the molecule `CCCc1[nH]nc(-c2cccc(F)c2)c1NC(=O)Cc1ccccc1`, the “% Inhibition” value is recorded as -7% and the Z score was 1.15.

For `CC[C@@](C)(COc1ncccc1Cl)NC(=O)c1cnn(C)c1N`, the “% Inhibition” value was found to be 9% and the Z score was -0.94.

Consider `Cc1cccc(CNC(=O)c2c(C)noc2-c2ccco2)c1`, for which the “% Inhibition” value is on record as 0% and the Z score is given as -0.03.

In the case of `COCc1nc(Cc2cc(OC)ccc2OC)n(-c2ccccc2C(=O)O)n1`, the “% Inhibition” value is recorded as -3% and the Z score came to 0.37.

Consider `O=C(Cn1cnc2ccccc21)N1C2CCC1CC(n1ccnn1)C2` (stereo not given), for which the “% Inhibition” value came out at 3% and the Z score is recorded as -0.49.

As for `CC(C)C(=O)N1CCCCCCN(C)C(=O)[C@@H]2CCC[C@@H]21`, the “% Inhibition” value is given as -9% and the Z score is 1.1.

In the case of `CCc1cccc(S(=O)(=O)N2C3CCC2CC(=O)C3)c1`, the “% Inhibition” value was -5% and the Z score was found to be 0.44.

`COC[C@H](C)C1CCN(C(=O)C(=O)c2ccco2)CC1`: the “% Inhibition” value was -13% and the Z score came to 1.23.

`FC(F)n1ccnc1CNc1cccc2c1OCCC2`: the “% Inhibition” value is -6% and the Z score is 0.67.

With `COC(=O)/C(=N/Nc1ccccc1C)N1CCCc2ccccc21`, the “% Inhibition” value was 2% and the Z score is -0.24.

Regarding `CCN1CCCC[C@@H]1CNC(=O)c1cncnc1`, the “% Inhibition” value is on record as 0% and the Z score was -0.07.

`CCC[C@@H](CNc1nc(C)ccc1C(N)=O)N(C)C`: the “% Inhibition” value is on record as -3% and the Z score is given as 0.53.

As to `COC(=O)CCNC(=O)c1cn2c(n1)C[C@@H](C)CC2`, the “% Inhibition” value is on record as -1% and the Z score is on record as 0.08.

In the case of `Cc1cc(C)nc(N2CCC3(CC2)OCCO3)n1`, the “% Inhibition” value is on record as -4% and the Z score is 0.55.

`C[C@H]1CNC(=O)CCN1Cc1c[nH]nc1-c1ccc(F)cc1`: the “% Inhibition” value turned out to be 6% and the Z score was -0.8.

Take `O=S(=O)(c1ccc(Cl)cc1)C1CNC1`: the “% Inhibition” value is 4% and the Z score is reported as -0.5.

On to `CCc1ccc([C@@H]2CN(C(=O)Nc3cccc(N4CCCC4=O)c3)CCO2)cc1`, for which the “% Inhibition” value is -4% and the Z score was determined as 0.49.

For the molecule `Cn1cc(NC(=O)[C@]2(C)Oc3ccc(Cl)cc3NC2=O)cn1`, the “% Inhibition” value amounted to 26% and the Z score is on record as -3.56.

On to `O=C(NC[C@H]1CC[C@H](CO)CC1)c1cncc(O)n1`, for which the “% Inhibition” value is reported as -6% and the Z score is reported as 1.15.

With `CCNc1ncc(S(=O)(=O)N[C@H](CC)CO)cc1C(F)(F)F`, the “% Inhibition” value is listed as 0% and the Z score came to 0.01.

Regarding `C[C@H]1CCN(c2ccc(NC(=O)NC3CCC(O)CC3)cc2)C1` (stereo not given in full), the “% Inhibition” value is on record as -4% and the Z score came to 0.68.

As for `CCCN(CCC)C(=O)c1nc(Cc2ccccc2)n(-c2ccccc2)n1`, the “% Inhibition” value is recorded as -7% and the Z score is 0.9.

As to `CC[C@H](O)Cn1ncnc1Cn1nc(C)cc1C`, the “% Inhibition” value is listed as -3% and the Z score is recorded as 0.5.

Regarding `O=C(c1ccc(C#Cc2ccccc2)cc1)N1CCN(C/C=C/c2ccccc2)CC1`, the “% Inhibition” value is 7% and the Z score is given as -0.79.

On to `CN(C)c1nc(-c2cccc3c2O[C@@H](CN)C3)ncc1F`, for which the “% Inhibition” value is given as -6% and the Z score amounted to 1.06.

With `CCOCCN1C[C@H](NC(=O)CN2CCCC2=O)[C@@H](c2ccccc2)C1`, the “% Inhibition” value was -7% and the Z score was 1.33.

As to `COc1ccccc1NC(=O)NC1C2CCC(C2)C1CO` (stereo not given), the “% Inhibition” value is recorded as -10% and the Z score is on record as 1.61.

As to `COCCO[C@H]1CN(C2CCN(C(=O)c3ccc4[nH]ccc4c3)CC2)C12CCCCC2`, the “% Inhibition” value is listed as -6% and the Z score was 1.03.

As to `CC(C)CO/C(=N/C(=O)c1ccc(F)cc1)NCCN1CCOCC1`, the “% Inhibition” value is recorded as -3% and the Z score worked out at 0.41.

`CN(C)c1ncc(C(=O)Nc2ccc3c(c2)OCO3)cn1`: the “% Inhibition” value is listed as -6% and the Z score is on record as 0.92.

In the case of `Cc1c(-c2ccccc2F)[nH]c2ccc(CNC(=O)c3cc(N)[nH]n3)cc12`, the “% Inhibition” value is -7% and the Z score is given as 0.86.

In the case of `CCOc1ccccc1NC(=O)Cn1nc2ccc(C(=O)Nc3cccc(C)c3)cn2c1=O`, the “% Inhibition” value is recorded as -18% and the Z score worked out at 1.55.

For `CCC(CC)n1ccc(-c2nc(-c3ccncc3)no2)n1`, the “% Inhibition” value is -4% and the Z score is listed as 0.36.

On to `O=C([C@@H]1CNc2ccccc2O1)N1CCCCC1`, for which the “% Inhibition” value was -16% and the Z score came to 3.01.

With `Cn1c(=O)n(C)c(=O)n(CC(=O)Nc2ccc3c(c2)OCO3)c1=O`, the “% Inhibition” value was -8% and the Z score is given as 0.8.
